Source: PubChem BioAssay AID624296 (National Center for Advancing Translational Sciences (NCATS), 2012)
Among all 350,000 compounds or so, about 9,900 (2.8%) were called active. The shares of active, inactive and inconclusive entries below differ from those in the screen. The call rests on the fitted dose curve; in most records, active means well fitted activation curve with a large enough effect; inconclusive means small, poorly fitted or top-dose-only effect; inactive means no such curve, though single readings can be large or run the other way. Potencies of inconclusive entries are left out as doubtful fits.
Potency means the concentration at half of the fitted maximal effect; tags describe the fitted curve by direction and shape.

Experiment: A quantitative high throughput screen for small molecules that induce DNA re-replication in MCF 10a normal breast cells. Further: nearly all actives have a fitted effect of over 50% in size.
Conditions: MCF 10A DNA re-replication, Hoechst nuclear intensity, 48 h; series mostly up to 46.1 µM
In the case of COc1ccc2c(n1)Sc1nc3ccccc3nc1N2, the Potency is reported as active: 20.6 µM. With CCCCn1c(SCC(=O)N2c3ccccc3CCc3ccccc32)nc2c1c(=O)n(C)c(=O)n2C the Potency was “inactive”. In the case of O=C(OCc1ccccc1)N(CCCCN(CCCNCc1ccccc1)C(=O)OCc1ccccc1)CCCNCc1ccccc1, the Potency is reported as active: 5.8 µM. For O=[N+]([O-])c1cc2c(cc1CN1CCN(c3ccc(F)cc3)CC1)OCO2, the Potency was inconclusive [activator, single point]. With NC(=O)NC(=O)CC1S/C(=N/N=C2\CSC(=O)N2)NC1=O (stereo not given) the Potency was inconclusive [activator, single point]. In the case of CCCc1nc(Cl)c(C#N)c2c1CCCC2, the Potency is reported as inconclusive [activator, single point]. For COc1ccc(NC(C)=O)c([N+](=O)[O-])c1[N+](=O)[O-], the Potency was inconclusive [activator, single point]. With COc1cc(C(=O)Nc2nc3ccccc3[nH]2)ccc1OC(F)F the Potency was inconclusive [activator, single point]. In the case of O=C(CSc1nnc(-c2ccccc2)o1)NC(=O)Cc1ccccc1, the Potency is reported as inconclusive [activator, single point]. With CN(C)CCCNC(=S)NCC(c1ccc(Cl)cc1Cl)c1c[nH]c2ccccc12 (stereo not given) the Potency was inconclusive [activator, single point]. In the case of Cn1nc(CC(=O)NCc2ccc(C(F)(F)F)cc2)c2ccccc2c1=O, the Potency is reported as inconclusive [activator, partial curve, poor fit]. With Cc1ccc(C(C)C)c(OCc2ccc(C(=O)N/N=C/c3ccc(O)cc3O)cc2)c1 the Potency was inconclusive [activator, partial curve, poor fit]. For Cc1cc(NC(=O)CSc2nnc(-c3ccccc3)c(-c3ccccc3)n2)no1, the Potency was active: 11.6 µM. For CCOc1ccc(N2C(=O)CNC2=S)cc1, the Potency was inconclusive [activator, partial curve, poor fit]. In the case of CC(=O)c1cccc(N(CC(=O)Nc2ccc(S(=O)(=O)N3CCCC3)cc2)S(C)(=O)=O)c1, the Potency is reported as “inactive”. For Cc1ccc(CC2S/C(=N/c3ccccn3)NC2=O)cc1 (stereo not given), the Potency was “inactive”. In the case of Cc1ccc(S(=O)(=O)Nc2ccc(O)c3ncccc23)cc1, the Potency is reported as “inactive”. In the case of CN(C(=O)c1ccc(NC(=O)Cc2cccc(NC(=O)C3CCN(C(=O)C4CC4)CC3)c2)cc1)C1CCCC1, the Potency is reported as inconclusive [activator, single point]. In the case of COCCN(C(=O)COC(=O)/C=C/c1ccc(OC)c(OC)c1)c1c(N)n(Cc2ccccc2)c(=O)[nH]c1=O, the Potency is reported as “inactive”. In the case of Cc1onc(-c2ccccc2)c1C(=O)NNC(=S)NC(=O)/C=C/c1cccs1, the Potency is reported as inconclusive [activator, single point]. In the case of O=C(CC(C(=O)O)c1cccc(Br)c1)c1ccc(Cl)cc1 (stereo not given), the Potency is reported as “inactive”. With Cc1cc(C)c2nc(N(CCCN(C)C)C(=O)c3ccc(S(=O)(=O)N4CCCCCC4)cc3)sc2c1 the Potency was inconclusive [activator, single point]. In the case of CCOC(=O)C1CCCN(Cc2c(C(=O)N3CCOCC3)nc3ccccn23)C1 (stereo not given), the Potency is reported as inconclusive [activator, partial curve, poor fit]. In the case of O=C(Nc1ccc([N+](=O)[O-])cc1NC(=O)c1ccccc1)c1ccccc1, the Potency is reported as “inactive”. In the case of CCn1c(SC(C)C(=O)O)nc2sc3c(c2c1=O)CCC3 (stereo not given), the Potency is reported as “inactive”. In the case of O=C(NCc1ccco1)c1ccc(COc2ccccc2[N+](=O)[O-])o1, the Potency is reported as “inactive”. With COc1cccc(/C=C/C(=O)OCC(=O)Nc2nnc(-c3ccccc3)o2)c1 the Potency was “inactive”. For CCCN(CCC)S(=O)(=O)c1ccc(NS(=O)(=O)c2ccc(F)cc2)cc1, the Potency was inconclusive [activator, partial curve, poor fit]. With CCOC(=O)c1sc(NC(=O)/C=C/c2cnn(C)c2C)c(C(=O)OC(C)C)c1C the Potency was inconclusive [activator, partial curve]. With COc1ccccc1CNC(=O)N1CCN(S(=O)(=O)c2ccc(C)cc2)CC1 the Potency was inconclusive [activator, partial curve, poor fit]. For COc1ccc2ccccc2c1CNC(C)CCc1ccccc1 (stereo not given), the Potency was inconclusive [activator, single point]. In the case of COc1ccc(CCCc2nnc(SCc3nc4ccccc4c(=O)[nH]3)n2C)cc1, the Potency is reported as inconclusive [activator, single point]. In the case of COc1ccc2c(c1)CCc1c(C(=O)N3CC4(C)CC3CC(C)(C)C4)noc1-2 (stereo not given), the Potency is reported as inconclusive [activator, full curve, poor fit]. With CCN(CCO)C(=S)Nc1cc(C(=O)OC)ccc1C(=O)OC the Potency was inconclusive [activator, full curve, poor fit]. With Brc1ccc(N/N=C(/N=Nc2nn[nH]n2)c2ccccc2)cc1 the Potency was “inactive”. With COc1cccc(NC(=O)CCC2CCN(C(=O)c3cncs3)CC2)c1 the Potency was “inactive”. In the case of CCc1cc(=O)[nH]c(SCc2cccc3ccccc23)n1, the Potency is reported as inconclusive [activator, single point]. For NC(=O)C1CCCN(C(=O)c2ccc3nc(Cc4cccc(Cl)c4)oc3c2)C1 (stereo not given), the Potency was “inactive”. With CCOc1ccccc1NC(=O)Cc1coc2ccc(C)cc12 the Potency was “inactive”. For CC(=O)C[C@H](O)CC(=O)[C@H]1OC(=O)CC/C=C\Cc2ccccc21, the Potency was “inactive”. With COc1ccc(N(CCCN2C(=O)c3cccc4cccc(c34)C2=O)C(=O)c2cccc(OC)c2)cc1 the Potency was inconclusive [activator, full curve, poor fit]. For COc1ccc(Cl)cc1NC(=S)NCCN1CCOCC1, the Potency was active: 0.461 µM. With C=CCNC(=O)c1ccccc1NC(=O)c1ccc(Cl)c(S(=O)(=O)Nc2ccccc2)c1 the Potency was inconclusive [activator, partial curve, poor fit]. For Cc1ccc(-n2cc(-c3ccccc3)c3c(=O)[nH]cnc32)cc1, the Potency was active: 23.1 µM. In the case of COc1ccc(-c2cc(C(=O)NCc3cn(C)nc3C)c3ccccc3n2)cc1OC, the Potency is reported as inconclusive [activator, partial curve, poor fit].
